# Measurements from the supplement of paper PMC8728848.
# The other results are listed elsewhere or left out.
# B1: ECL (Erythrina cristagalli), Q6YD91 (protein)
# chain: VETISFSFSEFEPGNNDLTLQGAAIITQSGVLQLTKINQNGMPAWDSTGRTLYTKPVHIWDMTTGTVASFETRFSFSIEQPYTRPLPADGLVFFMGPTKSKPAQGYGYLGVFNNSKQDNSYQTLAVEFDTFSNPWDPPQVPHIGIDVNSIRSIKTQPFQLDNGQVANVVIKYDASSKILLAVLVYPSSGAIYTIAEIVDVKQVLPEWVDVGLSGATGAQRDAAETHDVYSWSFHASLPETND
# Tests used:
# Test in all cases: glycan array binding signal (z-score within array); higher = stronger binding
# Settings in all cases: glycan notation: IUPAC condensed, linker removed
# [1] = target: Gal(b1-4)GlcNAc(b1-2)[Gal(b1-4)GlcNAc(b1-6)]Man(a1-6)[GlcNAc(b1-4)][Gal(b1-4)GlcNAc(b1-2)Man(a1-3)]Man(b1-4)GlcNAc(b1-4)GlcNAc
# Procedure, shortened: (§1)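 Glycan array data were curated from 3228 arrays in the Consortium for Functional Glycomics database and kept only where the protein sequence was available. Glycan names were converted to IUPAC-condensed notation, and columns mapping to the same glycan were averaged. The binding signal is a within-array Z-score, averaged across arrays of the same protein sequence at different concentrations or buffers and across linkers. Negative Z-scores can be read as non-binding.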
# [2] = target: Gal(b1-4)GlcNAc(b1-2)[Gal(b1-4)GlcNAc(b1-6)]Man(a1-6)[GlcNAc(b1-4)][Gal(b1-4)GlcNAc(b1-2)[Gal(b1-4)GlcNAc(b1-4)]Man(a1-3)]Man(b1-4)GlcNAc(b1-4)[Fuc(a1-6)]GlcNAc
# Procedure, shortened: as §1
# [3] = target: Gal(b1-4)GlcNAc(b1-3)Gal(b1-3)GalNAc
# Procedure, shortened: as §1
# [4] = target: Gal(b1-4)GlcNAc(b1-3)Gal(b1-3)GlcNAc
# Procedure, shortened: as §1
# [5] = target: Gal(b1-4)GlcNAc(b1-3)Gal(b1-4)Glc
# Procedure, shortened: as §1
# [6] = target: Gal(b1-4)GlcNAc(b1-3)Gal(b1-4)GlcNAc
# Procedure, shortened: as §1
# [7] = target: Gal(b1-4)GlcNAc(b1-3)Gal(b1-4)GlcNAc(b1-2)Man(a1-3)[Gal(b1-4)GlcNAc(b1-3)Gal(b1-4)GlcNAc(b1-2)Man(a1-6)]Man(b1-4)GlcNAc(b1-4)GlcNAc
# Procedure, shortened: as §1
# [8] = target: Gal(b1-4)GlcNAc(b1-3)Gal(b1-4)GlcNAc(b1-2)Man(a1-3)[Gal(b1-4)GlcNAc(b1-3)Gal(b1-4)GlcNAc(b1-2)Man(a1-6)]Man(b1-4)GlcNAc(b1-4)[Fuc(a1-6)]GlcNAc
# Procedure, shortened: as §1
# [9] = target: Gal(b1-4)GlcNAc(b1-3)Gal(b1-4)GlcNAc(b1-2)[Gal(b1-4)GlcNAc(b1-3)Gal(b1-4)GlcNAc(b1-6)]Man(a1-6)[Gal(b1-4)GlcNAc(b1-3)Gal(b1-4)GlcNAc(b1-2)Man(a1-3)]Man(b1-4)GlcNAc(b1-4)GlcNAc
# Procedure, shortened: as §1
# [10] = target: Gal(b1-4)GlcNAc(b1-3)Gal(b1-4)GlcNAc(b1-2)[Gal(b1-4)GlcNAc(b1-3)Gal(b1-4)GlcNAc(b1-6)]Man(a1-6)[Gal(b1-4)GlcNAc(b1-3)Gal(b1-4)GlcNAc(b1-2)Man(a1-3)]Man(b1-4)GlcNAc(b1-4)[Fuc(a1-6)]GlcNAc
# Procedure, shortened: as §1
# [11] = target: Gal(b1-4)GlcNAc(b1-3)Gal(b1-4)GlcNAc(b1-3)Gal(b1-4)GlcNAc
# Procedure, shortened: as §1
# [12] = target: Gal(b1-4)GlcNAc(b1-3)Gal(b1-4)GlcNAc(b1-3)Gal(b1-4)GlcNAc(b1-2)Man(a1-3)[Gal(b1-4)GlcNAc(b1-3)Gal(b1-4)GlcNAc(b1-3)Gal(b1-4)GlcNAc(b1-2)Man(a1-6)]Man(b1-4)GlcNAc(b1-4)GlcNAc
# Procedure, shortened: as §1
# [13] = target: Gal(b1-4)GlcNAc(b1-3)Gal(b1-4)GlcNAc(b1-3)Gal(b1-4)GlcNAc(b1-2)Man(a1-3)[Gal(b1-4)GlcNAc(b1-3)Gal(b1-4)GlcNAc(b1-3)Gal(b1-4)GlcNAc(b1-2)Man(a1-6)]Man(b1-4)GlcNAc(b1-4)[Fuc(a1-6)]GlcNAc
# Procedure, shortened: as §1
# [14] = target: Gal(b1-4)GlcNAc(b1-3)Gal(b1-4)GlcNAc(b1-3)Gal(b1-4)GlcNAc(b1-2)[Gal(b1-4)GlcNAc(b1-3)Gal(b1-4)GlcNAc(b1-3)Gal(b1-4)GlcNAc(b1-6)]Man(a1-6)[Gal(b1-4)GlcNAc(b1-3)Gal(b1-4)GlcNAc(b1-3)Gal(b1-4)GlcNAc(b1-2)Man(a1-3)]Man(b1-4)GlcNAc(b1-4)[Fuc(a1-6)]GlcNAc
# Procedure, shortened: as §1
# [15] = target: Gal(b1-4)GlcNAc(b1-3)Gal(b1-4)GlcNAc(b1-3)Gal(b1-4)GlcNAc(b1-3)Gal(b1-4)GlcNAc(b1-2)Man(a1-3)[Gal(b1-4)GlcNAc(b1-3)Gal(b1-4)GlcNAc(b1-3)Gal(b1-4)GlcNAc(b1-3)Gal(b1-4)GlcNAc(b1-2)Man(a1-6)]Man(b1-4)GlcNAc(b1-4)GlcNAc
# Procedure, shortened: as §1
# [16] = target: Gal(b1-4)GlcNAc(b1-3)Gal(b1-4)GlcNAc(b1-3)Gal(b1-4)GlcNAc(b1-3)Gal(b1-4)GlcNAc(b1-2)Man(a1-3)[Gal(b1-4)GlcNAc(b1-3)Gal(b1-4)GlcNAc(b1-3)Gal(b1-4)GlcNAc(b1-3)Gal(b1-4)GlcNAc(b1-2)Man(a1-6)]Man(b1-4)GlcNAc(b1-4)[Fuc(a1-6)]GlcNAc
# Procedure, shortened: as §1
# [17] = target: Gal(b1-4)GlcNAc(b1-3)Gal(b1-4)GlcNAc(b1-3)Gal(b1-4)GlcNAc(b1-3)Gal(b1-4)GlcNAc(b1-2)[Gal(b1-4)GlcNAc(b1-3)Gal(b1-4)GlcNAc(b1-3)Gal(b1-4)GlcNAc(b1-3)Gal(b1-4)GlcNAc(b1-6)]Man(a1-6)[Gal(b1-4)GlcNAc(b1-3)Gal(b1-4)GlcNAc(b1-3)Gal(b1-4)GlcNAc(b1-3)Gal(b1-4)GlcNAc(b1-2)Man(a1-3)]Man(b1-4)GlcNAc(b1-4)[Fuc(a1-6)]GlcNAc
# Procedure, shortened: as §1
# [18] = target: Gal(b1-4)GlcNAc(b1-3)Gal(b1-4)GlcNAc(b1-3)Gal(b1-4)GlcNAc(b1-3)Gal(b1-4)GlcNAc(b1-3)Gal(b1-4)GlcNAc(b1-2)Man(a1-3)[Gal(b1-4)GlcNAc(b1-3)Gal(b1-4)GlcNAc(b1-3)Gal(b1-4)GlcNAc(b1-3)Gal(b1-4)GlcNAc(b1-3)Gal(b1-4)GlcNAc(b1-2)Man(a1-6)]Man(b1-4)GlcNAc(b1-4)GlcNAc
# Procedure, shortened: as §1
# [19] = target: Gal(b1-4)GlcNAc(b1-3)Gal(b1-4)GlcNAc(b1-3)Gal(b1-4)GlcNAc(b1-3)Gal(b1-4)GlcNAc(b1-3)Gal(b1-4)GlcNAc(b1-2)Man(a1-3)[Gal(b1-4)GlcNAc(b1-3)Gal(b1-4)GlcNAc(b1-3)Gal(b1-4)GlcNAc(b1-3)Gal(b1-4)GlcNAc(b1-3)Gal(b1-4)GlcNAc(b1-2)Man(a1-6)]Man(b1-4)GlcNAc(b1-4)[Fuc(a1-6)]GlcNAc
# Procedure, shortened: as §1
binder,measurement,setting,value
B1,glycan array binding signal (z-score),[1],1.42
same,glycan array binding signal (z-score),[2],2.43
same,glycan array binding signal (z-score),[3],-0.069
same,glycan array binding signal (z-score),[4],-0.064
same,glycan array binding signal (z-score),[5],0.489
same,glycan array binding signal (z-score),[6],0.763
same,glycan array binding signal (z-score),[7],1.7
same,glycan array binding signal (z-score),[8],4.13
same,glycan array binding signal (z-score),[9],1.13
same,glycan array binding signal (z-score),[10],6.18
same,glycan array binding signal (z-score),[11],0.335
same,glycan array binding signal (z-score),[12],3.06
same,glycan array binding signal (z-score),[13],3.27
same,glycan array binding signal (z-score),[14],5.28
same,glycan array binding signal (z-score),[15],3.58
same,glycan array binding signal (z-score),[16],2.95
same,glycan array binding signal (z-score),[17],5.63
same,glycan array binding signal (z-score),[18],3.35
same,glycan array binding signal (z-score),[19],2.87
